In the supplement of paper PMC9588766 one finds cell viability data, which are given here for 36 compounds.

Each structure is given as a SMILES string. Structures can show the parent of a compound that is named as a salt. Over roughly 1,900 compounds, “cell viability of compound + 1 nM pemigatinib relative to pemigatinib-only (DMSO) wells” has its median near 0.95; the lowest 2% begin near 0.22. The list shows a part of the results.

In this experiment the test system is PDC-DUC18828. As to the kind of experiment: cell viability of compound + 1 nM pemigatinib relative to pemigatinib-only (DMSO) wells (fraction); PDC-DUC18828 is a patient-derived cholangiocarcinoma cell line; higher = less growth inhibition. The settings on record: first compound 1 µM; pemigatinib concentration 1 nM; 72 h. How it is done:
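Selleck Bioactive library screen in the patient-derived FGFR2 fusion-positive ICC cell line PDC-DUC18828 (500 cells/well). Each compound was tested at 1 uM with 1 nM pemigatinib, in triplicate, for 72 h. Viability was read by CellTiter-Glo and normalised to plate DMSO controls. Value is the paper's averaged normalised viability.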
With `CC(S)C(=O)NCC(=O)O` (stereo unspecified) [Tiopronin] + CCN1C(=O)N(c2c(F)c(OC)cc(OC)c2F)Cc2cnc3[nH]c(CN4CCOCC4)cc3c21 [pemigatinib], the cell viability is 0.974.
As for `CNCc1ccc(-c2cc(-c3nc(-c4ccc(S(=O)(=O)C(C)C)cc4)cnc3N)on2)cc1` + CCN1C(=O)N(c2c(F)c(OC)cc(OC)c2F)Cc2cnc3[nH]c(CN4CCOCC4)cc3c21 [pemigatinib], the cell viability amounted to 0.87.
For `CN1CCN(CCCN2c3ccccc3Sc3ccc(C(F)(F)F)cc32)CC1` [Trifluoperazine 2HCl] + CCN1C(=O)N(c2c(F)c(OC)cc(OC)c2F)Cc2cnc3[nH]c(CN4CCOCC4)cc3c21 [pemigatinib], the cell viability came to 0.829.
With `CC[C@H](C)[C@H](N)C1=N[C@H](C(=O)N[C@@H](CC(C)C)C(=O)N[C@H](CCC(=O)O)C(=O)N[C@H](C(=O)N[C@H]2CCCCNC(=O)[C@H](CC(N)=O)NC(=O)[C@@H](CC(=O)O)NC(=O)[C@H](Cc3cnc[nH]3)NC(=O)[C@@H](Cc3ccccc3)NC(=O)[C@H]([C@@H](C)CC)NC(=O)[C@@H](CCCN)NC2=O)[C@@H](C)CC)CS1` [Bacitracin] + CCN1C(=O)N(c2c(F)c(OC)cc(OC)c2F)Cc2cnc3[nH]c(CN4CCOCC4)cc3c21 [pemigatinib] the figure was 0.961; with `O=C(CCc1ccc(O)cc1)c1c(O)cc(O)cc1O` [Phloretin] + CCN1C(=O)N(c2c(F)c(OC)cc(OC)c2F)Cc2cnc3[nH]c(CN4CCOCC4)cc3c21 [pemigatinib], 0.98; with `OC(CNCC(O)C1CCc2cc(F)ccc2O1)C1CCc2cc(F)ccc2O1` (stereo unspecified) [Nebivolol] + CCN1C(=O)N(c2c(F)c(OC)cc(OC)c2F)Cc2cnc3[nH]c(CN4CCOCC4)cc3c21 [pemigatinib], 1.03.
On to `CN(CC(=O)N(Cc1ccc(C2CCCCC2)cc1)c1ccc(C(=O)O)cc1)S(=O)(=O)c1c(F)c(F)c(F)c(F)c1F` + CCN1C(=O)N(c2c(F)c(OC)cc(OC)c2F)Cc2cnc3[nH]c(CN4CCOCC4)cc3c21 [pemigatinib], for which the cell viability turned out to be 0.809.
With `CCc1nc(N)nc(N)c1-c1ccc(Cl)cc1` [Pyrimethamine] + CCN1C(=O)N(c2c(F)c(OC)cc(OC)c2F)Cc2cnc3[nH]c(CN4CCOCC4)cc3c21 [pemigatinib] the figure was 0.95; with `Cc1c(C(=O)NN2CCCCC2)nn(-c2ccc(Cl)cc2Cl)c1-c1ccc(I)cc1` + CCN1C(=O)N(c2c(F)c(OC)cc(OC)c2F)Cc2cnc3[nH]c(CN4CCOCC4)cc3c21 [pemigatinib], 0.926; with `CC(C)NCC(O)COc1ccc(CCOCC2CC2)cc1` (stereo unspecified) [Betaxolol] + CCN1C(=O)N(c2c(F)c(OC)cc(OC)c2F)Cc2cnc3[nH]c(CN4CCOCC4)cc3c21 [pemigatinib], 0.97.
As to `CN1CC(=O)N2[C@H](c3ccc4c(c3)OCO4)c3[nH]c4ccccc4c3C[C@@H]2C1=O` [Tadalafil] + CCN1C(=O)N(c2c(F)c(OC)cc(OC)c2F)Cc2cnc3[nH]c(CN4CCOCC4)cc3c21 [pemigatinib], the cell viability amounted to 1.03.
For the compound `CCN(C(=O)c1c(O)c2c(Cl)cccc2n(C)c1=O)c1ccccc1` [Laquinimod] + CCN1C(=O)N(c2c(F)c(OC)cc(OC)c2F)Cc2cnc3[nH]c(CN4CCOCC4)cc3c21 [pemigatinib], the cell viability was 1.02.
The figure for `Cc1cccc(-c2[nH]c(C(C)(C)C)nc2-c2ccc3c(c2)OCO3)n1` + CCN1C(=O)N(c2c(F)c(OC)cc(OC)c2F)Cc2cnc3[nH]c(CN4CCOCC4)cc3c21 [pemigatinib] is 1.02; for `CC(NC(=O)c1ccccc1/N=C/c1c(O)ccc2ccccc12)c1ccccc1` (stereo unspecified) [Sirtinol] + CCN1C(=O)N(c2c(F)c(OC)cc(OC)c2F)Cc2cnc3[nH]c(CN4CCOCC4)cc3c21 [pemigatinib] it is 0.961.
The figure for `CCCN1CCCC[C@H]1C(=O)Nc1c(C)cccc1C` [Ropivacaine HCl] + CCN1C(=O)N(c2c(F)c(OC)cc(OC)c2F)Cc2cnc3[nH]c(CN4CCOCC4)cc3c21 [pemigatinib] is 0.982; for `CC(C)(OCc1nn(Cc2ccccc2)c2ccccc12)C(=O)O` [Bindarit] + CCN1C(=O)N(c2c(F)c(OC)cc(OC)c2F)Cc2cnc3[nH]c(CN4CCOCC4)cc3c21 [pemigatinib] it is 0.884.
The figure for `COc1ccc(NS(=O)(=O)c2sc3ccc(Cl)cc3c2C)cc1N1CCNCC1` + CCN1C(=O)N(c2c(F)c(OC)cc(OC)c2F)Cc2cnc3[nH]c(CN4CCOCC4)cc3c21 [pemigatinib] is 0.942; for `COc1cc(OC2CCN(C)CC2)ccc1Nc1ncc2c(n1)n(C1CCCC1)c(=O)n2C` + CCN1C(=O)N(c2c(F)c(OC)cc(OC)c2F)Cc2cnc3[nH]c(CN4CCOCC4)cc3c21 [pemigatinib] it is 0.92.
As to `C#CCN[C@@H]1CCc2ccccc21` [Rasagiline Mesylate] + CCN1C(=O)N(c2c(F)c(OC)cc(OC)c2F)Cc2cnc3[nH]c(CN4CCOCC4)cc3c21 [pemigatinib], the cell viability is 1.
As to `CCOc1nc2cccc(C(=O)OCc3oc(=O)oc3C)c2n1Cc1ccc(-c2ccccc2-c2noc(=O)[nH]2)cc1` [Azilsartan Medoxomil] + CCN1C(=O)N(c2c(F)c(OC)cc(OC)c2F)Cc2cnc3[nH]c(CN4CCOCC4)cc3c21 [pemigatinib], the cell viability turned out to be 1.05.
`O=C(NCC1(c2nc(-c3ccccc3)cs2)CCOCC1)c1cccc(-c2noc(C(F)(F)F)n2)c1` + CCN1C(=O)N(c2c(F)c(OC)cc(OC)c2F)Cc2cnc3[nH]c(CN4CCOCC4)cc3c21 [pemigatinib]: the cell viability stood at 0.991.
Turning to `Cc1ccc(NC(=O)c2ccc(CN3CCN(C)CC3)cc2)cc1Nc1nccc(-c2cccnc2)n1` [Imatinib Mesylate (STI571)] + CCN1C(=O)N(c2c(F)c(OC)cc(OC)c2F)Cc2cnc3[nH]c(CN4CCOCC4)cc3c21 [pemigatinib], the cell viability came out at 1.06.
The figure for `Cc1ccc(NC(=O)c2ccc(CN3CCN(C)CC3)cc2)cc1Nc1nccc(-c2cccnc2)n1` [Imatinib (STI571)] + CCN1C(=O)N(c2c(F)c(OC)cc(OC)c2F)Cc2cnc3[nH]c(CN4CCOCC4)cc3c21 [pemigatinib] is 0.955; for `Cc1nn(-c2ccccc2)c(C)c1C=NN1CCN(Cc2ccccc2)CC1` + CCN1C(=O)N(c2c(F)c(OC)cc(OC)c2F)Cc2cnc3[nH]c(CN4CCOCC4)cc3c21 [pemigatinib] it is 0.939; for `CC(C)C(=O)Oc1ccc(CO)cc1[C@H](CCN(C(C)C)C(C)C)c1ccccc1` [Fesoterodine Fumarate] + CCN1C(=O)N(c2c(F)c(OC)cc(OC)c2F)Cc2cnc3[nH]c(CN4CCOCC4)cc3c21 [pemigatinib] it is 1.
As for `O=C(O)C(=O)O.[NH-][C@@H]1CCCC[C@H]1[NH-].[Pt+2]` [Oxaliplatin] + CCN1C(=O)N(c2c(F)c(OC)cc(OC)c2F)Cc2cnc3[nH]c(CN4CCOCC4)cc3c21 [pemigatinib], the cell viability was determined as 0.922.
With `CCc1c2c(nc3ccc(O)cc13)-c1cc3c(c(=O)n1C2)COC(=O)[C@]3(O)CC` + CCN1C(=O)N(c2c(F)c(OC)cc(OC)c2F)Cc2cnc3[nH]c(CN4CCOCC4)cc3c21 [pemigatinib], the cell viability worked out at 0.125.
Regarding `CCOC(=O)c1cnc2ccc(-c3cncc(NS(=O)(=O)c4ccccc4)c3)cn12` + CCN1C(=O)N(c2c(F)c(OC)cc(OC)c2F)Cc2cnc3[nH]c(CN4CCOCC4)cc3c21 [pemigatinib], the cell viability worked out at 0.407.
As for `C[C@@H](Nc1cc(F)cc(F)c1)c1cc(C(=O)N(C)C)cc2c(=O)cc(N3CCOCC3)oc12` + CCN1C(=O)N(c2c(F)c(OC)cc(OC)c2F)Cc2cnc3[nH]c(CN4CCOCC4)cc3c21 [pemigatinib], the cell viability was 0.66.
With `COc1cc(C(=O)N2CCC(N3CCN(C)CC3)CC2)ccc1Nc1ncc2c(n1)N(C)c1ccccc1C(=O)N2C` + CCN1C(=O)N(c2c(F)c(OC)cc(OC)c2F)Cc2cnc3[nH]c(CN4CCOCC4)cc3c21 [pemigatinib], the cell viability came out at 0.986.
Consider `Clc1ccc(C(Cn2ccnc2)OCc2ccsc2Cl)c(Cl)c1` (stereo unspecified) [Tioconazole] + CCN1C(=O)N(c2c(F)c(OC)cc(OC)c2F)Cc2cnc3[nH]c(CN4CCOCC4)cc3c21 [pemigatinib], for which the cell viability was found to be 1.02.
As for `C[C@H]1c2cccc(O)c2C(=O)C2=C(O)[C@]3(O)C(=O)C(C(N)=O)=C(O)[C@@H](N(C)C)[C@@H]3[C@@H](O)[C@@H]21` [Doxycycline Hyclate] + CCN1C(=O)N(c2c(F)c(OC)cc(OC)c2F)Cc2cnc3[nH]c(CN4CCOCC4)cc3c21 [pemigatinib], the cell viability is 1.02.
Consider `COc1cc2c(cc1OC)CC(=O)N(CCCN(C)C[C@H]1Cc3cc(OC)c(OC)cc31)CC2` [Ivabradine HCl] + CCN1C(=O)N(c2c(F)c(OC)cc(OC)c2F)Cc2cnc3[nH]c(CN4CCOCC4)cc3c21 [pemigatinib], for which the cell viability is 1.07.
With `Cc1c(C(=O)NN2CCCCC2)nn(-c2ccc(Cl)cc2Cl)c1-c1ccc(Cl)cc1` [Rimonabant] + CCN1C(=O)N(c2c(F)c(OC)cc(OC)c2F)Cc2cnc3[nH]c(CN4CCOCC4)cc3c21 [pemigatinib], the cell viability was 0.882.
On to `COc1ccc(O)cc1` [Mequinol] + CCN1C(=O)N(c2c(F)c(OC)cc(OC)c2F)Cc2cnc3[nH]c(CN4CCOCC4)cc3c21 [pemigatinib], for which the cell viability was 0.987.
With `CCCCCCOC(=O)NC(=N)c1ccc(NCc2nc3cc(C(=O)N(CCC(=O)OCC)c4ccccn4)ccc3n2C)cc1` [Dabigatran Etexilate] + CCN1C(=O)N(c2c(F)c(OC)cc(OC)c2F)Cc2cnc3[nH]c(CN4CCOCC4)cc3c21 [pemigatinib] the figure was 0.993.
